PubChem BioAssay AID1460 (National Center for Advancing Translational Sciences (NCATS), 2008)
“And” between values parts separate entries of the source, which are not always exact repeats. Identical values can stand only once. The campaign covered roughly 270,000 compounds. About 5,800 (2.1%) were called active. The inconclusive results got no clear call from the source; some entries with a clear call stand among them for comparison. Calls come from the whole dose curve; as a rule, active = well fitted inhibition curve with a large enough effect; inconclusive = small, poorly fitted or top-dose-only effect; inactive = flat fitted curve, though single readings scatter. Potencies beside an inconclusive call are fits to weak or partial responses and may not hold up.

target: Microtubule-associated protein tau (Homo sapiens) (UniProt P10636); assay: qHTS for Inhibitors of Tau Fibril Formation, Thioflavin T Binding; conditions: recombinant tau K18 P301L (four-repeat tau fragment), heparin-induced fibrillization, ThT fluorescence; series mostly up to 57.4 µM; note: nearly all actives have a fitted effect of over 55% in size
Chain of UniProt P10636 (P10636 whole entry, looked up, the tested form may be a part): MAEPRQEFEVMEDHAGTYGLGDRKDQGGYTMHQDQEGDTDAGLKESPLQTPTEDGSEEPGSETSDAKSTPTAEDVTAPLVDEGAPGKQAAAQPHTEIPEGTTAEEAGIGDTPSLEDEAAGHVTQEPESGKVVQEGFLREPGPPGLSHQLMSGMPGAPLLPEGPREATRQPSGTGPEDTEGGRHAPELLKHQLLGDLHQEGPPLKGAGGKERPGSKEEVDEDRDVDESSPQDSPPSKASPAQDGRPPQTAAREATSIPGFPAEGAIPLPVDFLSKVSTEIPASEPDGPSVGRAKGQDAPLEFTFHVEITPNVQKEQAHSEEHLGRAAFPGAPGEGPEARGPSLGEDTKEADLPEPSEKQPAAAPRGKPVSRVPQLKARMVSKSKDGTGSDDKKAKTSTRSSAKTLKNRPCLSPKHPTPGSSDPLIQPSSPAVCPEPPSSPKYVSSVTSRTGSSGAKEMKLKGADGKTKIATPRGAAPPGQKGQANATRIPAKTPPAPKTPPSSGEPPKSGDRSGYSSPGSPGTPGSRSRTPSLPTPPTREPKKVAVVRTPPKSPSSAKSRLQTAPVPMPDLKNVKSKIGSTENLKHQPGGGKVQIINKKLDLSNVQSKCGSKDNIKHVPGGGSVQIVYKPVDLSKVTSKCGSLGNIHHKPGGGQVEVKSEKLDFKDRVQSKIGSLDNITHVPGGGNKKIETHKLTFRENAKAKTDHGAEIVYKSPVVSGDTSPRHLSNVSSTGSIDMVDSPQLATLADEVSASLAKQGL
Summary of the method: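 Tau K18 P301L fragment (15 uM unlabeled plus 0.24 uM Alexa 594-labeled) in 100 mM sodium acetate pH 7 with compound, fibrillization induced by 20 uM heparin for 6 hr at 37 C. Thioflavin T (30 uM) added, fluorescence read after 1 hr (ex 450, em 510 nm).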
Potency is the fitted concentration of half-maximal effect; tags give direction and shape of the fitted curve.

SMILES	Potency
Cc1ccc(-c2nc3ccccn3c2Nc2ccc3c(c2)OCO3)cc1	inconclusive: 17.8 µM [inhibitor, partial curve]
Cc1ccc(O)c(C(=O)c2cnc3onc(-c4ccc(F)cc4)c3c2)c1	inconclusive: 39.8 µM [inhibitor, single point]
Oc1ccccc1C(=S)N1CCCCCC1	inconclusive: 31.6 µM [inhibitor, single point]
COc1cccc(C(=O)/C=C/Nc2cc(C)ccc2O)c1	active: 3.55 µM
COc1ccc(-c2cn3c4c(sc3n2)CCCC4)cc1	inconclusive: 2.82 µM [inhibitor, partial curve]
COc1ccc(C(=O)COC(=O)c2cccc(NC(=O)c3ccc(OC)c(OC)c3)c2)cc1	inactive
Cc1ccc2c(C(=O)CN3CCC4(CC3)OCCO4)c(C)[nH]c2c1	inactive
Cc1cccc(OCC(=O)OCc2cc(=O)n3nc(C4CCCCC4)sc3n2)c1	inconclusive: 1.26 µM [inhibitor, partial curve]
CCCCCNC(=O)CC1Nc2c3ccccc3nc(=S)n2C1=O (stereo unspecified)	inactive
C=CCn1c(=N)c(C(=O)NCCCOC)cc2c(=O)n3cccc(C)c3nc21	inactive
N#Cc1cccc(NC(=O)CSc2ccc3c4c(cccc24)C(=O)c2ccccc2-3)c1	inconclusive: 8.91 µM [inhibitor, partial curve]
CCN(CC)C(=O)c1ccc(-c2ccccc2)cc1	inconclusive: 25.1 µM [inhibitor, partial curve]
COc1ccc(-n2nnc3c(SCC(=O)NCc4ccco4)ncnc32)cc1	inconclusive: 8.91 µM [inhibitor, partial curve]
CCOC(=O)c1ccc(NC(=O)CSc2nnc(CNc3ccc(C)cc3)n2C)cc1	inconclusive: 2.82 µM [inhibitor, full curve]
COc1ccc(N2C(=O)CC(N3CCCC4CCCCC43)C2=O)cc1 (stereo unspecified)	inactive
Fc1ccc(Nc2nnns2)cc1	active: 28.2 µM
CCOc1ccc(CC(=O)C2C(=O)CC(C)(C)CC2=O)cc1OCC	inconclusive: 22.4 µM [inhibitor, single point]
CCC(C(=O)OCC(=O)Nc1cccc(C(C)=O)c1)c1ccccc1 (stereo unspecified)	inactive
COc1cc(/C=N/NC(=O)c2cc(-c3cccs3)nc3ccccc23)ccc1O	inconclusive: 25.1 µM [inhibitor, partial curve]
O=C(c1ccccc1F)N1CCN(c2ccccc2)CC1	inactive
CCOC(=O)C1(CCCCCCOc2ccc(Cl)cc2)CO1 (stereo unspecified)	inconclusive: 25.1 µM [inhibitor, partial curve]
CCn1cc(C(=O)Nc2ccccc2C(=O)OC)c(=O)c2ccc(C)nc21	inactive
CCOC(=O)c1oc2nc(C)c3c(c2c1N)CC(C)(C)OC3	inactive
O=C(O)c1cc([N+](=O)[O-])c(NCCC2=CCCCC2)c([N+](=O)[O-])c1	inconclusive: 14.1 µM [inhibitor, partial curve]

SMILES	Potency
COc1cc(C(=S)N2CCOCC2)cc(OC)c1OC(=O)c1cc([N+](=O)[O-])c(C)c([N+](=O)[O-])c1	inconclusive: 5.01 µM [inhibitor, partial curve, poor fit]
COc1cc(C2c3sc(=O)[nH]c3SC3C(=O)N(c4ccc(C)cc4)C(=O)C32)ccc1O (stereo unspecified)	inconclusive: 1.58 µM [inhibitor, full curve]
CC1(C)CCCN(C(=O)c2coc(=O)c(Br)c2)C1	inactive
Cc1nc(C)c(-c2ccc(SCC(=O)Nc3ccc(F)c(F)c3)nn2)s1	inconclusive: 25.1 µM [inhibitor, single point]
COc1cc(OC)c(N(C)C(=O)Cn2ncc3c([nH]c4ccccc43)c2=O)cc1Cl	inactive
O=c1c2cc3c(cc2nc2sc(Nc4ccc(F)c(Cl)c4)nn12)OCO3	inconclusive: 7.94 µM [inhibitor, full curve, poor fit]
COc1ccc(Cn2c(=O)c3cccnc3n(Cc3cccc(OC)c3)c2=O)cc1	inactive
CCCC(=O)Nc1ccc(C(=O)N/N=C/c2ccc[nH]2)cc1	active: 15.8 µM
O=S(=O)(c1ccccc1)N1CCN(C2CCCCCCC2)CC1	inactive
CC1CC(C)CN(C(=O)CSC2=Nc3ccccc3C3=NC(Cc4c[nH]c5ccccc45)C(=O)N23)C1 (stereo unspecified)	inconclusive: 6.31 µM [inhibitor, partial curve]
COc1ccc2nc(SCC(N)=O)cc(C)c2c1	inconclusive: 12.6 µM [inhibitor, partial curve]
O=C(NC1CC(=O)N(c2cccc(F)c2)C1)C1CC1 (stereo unspecified)	inactive
CCn1nnnc1-c1ccc(OC)c(S(=O)(=O)Nc2ccc(OC)cc2)c1	inactive
O=C(NCC1CCCO1)C(c1ccc(F)cc1)N(CC1CCCO1)C(=O)c1ccc(-c2ccccc2)[nH]1 (stereo unspecified)	inconclusive: 35.5 µM [inhibitor, partial curve]
CSCCC1NC2(C(=O)Nc3c2ccc(Cl)c3C)[C@@H]2C(=O)N(C3CCCC3)C(=O)[C@H]12 (stereo partly specified)	inactive
COc1cc2cc(C)c3nnc(SCC(N)=O)n3c2cc1OC	inactive
O=S(=O)(Cc1ccccc1)N1CCc2ccccc21	inconclusive: 25.1 µM [inhibitor, partial curve]
Cc1nc2ccccc2n1/C(=N/S(=O)(=O)c1ccc(Br)cc1)c1ccccc1	inactive
COc1cccc(C2c3[nH]c4ccccc4c3CCN2Cc2cnc(C)s2)c1OC (stereo unspecified)	inconclusive: 15.8 µM [inhibitor, partial curve, poor fit]
N=c1c(S(=O)(=O)c2ccccc2)cc2c(=O)n3ccccc3nc2n1Cc1ccco1	inconclusive: 20 µM [inhibitor, partial curve]
CCOC(=O)C1(Cc2ccccc2C(F)(F)F)CCN(C(C)CCn2cccn2)CC1 (stereo unspecified)	inconclusive: 12.6 µM [inhibitor, partial curve, poor fit]
Cn1nc(C(=O)OCC(=O)N2CCc3ccccc32)c2ccccc2c1=O	inconclusive: 12.6 µM [inhibitor, partial curve]
O=C1OCCN1C(=O)[C@H]1[C@H](c2ccc(F)cc2)C(c2ccc(F)cc2)=NN1c1ccccc1	inactive
COc1ccc(NC(=O)Nc2ccc(F)c(F)c2)c(OC)c1	inconclusive: 17.8 µM [inhibitor, partial curve]

SMILES	Potency
N#CC1=C(N)SC(N)=C(C#N)C1Cc1ccccc1	inconclusive: 25.1 µM [inhibitor, partial curve]
CCOC(=O)Cn1c(=N)n(CCOc2ccc3ccccc3c2)c2ccccc21	inconclusive: 35.5 µM [inhibitor, partial curve]
O=C(O)c1ccc(N/N=C/c2ccc(-c3ccccc3Cl)o2)cc1	inconclusive: 12.6 µM [inhibitor, partial curve]
Cc1cc(C)cc(NC(=O)CN2CCc3ccccc3C2)c1	inactive
COc1ccc(-c2nnc(SCC(=O)NCc3ccc(C)cc3)nc2-c2ccc(OC)c(OC)c2)cc1OC	inconclusive: 22.4 µM [inhibitor, single point]
CCOc1ccc(NC(=O)C(C)Oc2ccccc2C(=O)Nc2cccc(Cl)c2Cl)cc1 (stereo unspecified)	inactive
CCCOc1ccc(C(=O)NC(=S)Nc2nc3ccccc3s2)cc1	inconclusive: 5.01 µM [inhibitor, partial curve]
COc1ccc2c(CC(=O)OCC(=O)c3ccccc3OC)coc2c1	inconclusive: 4.47 µM [inhibitor, partial curve]
CSc1ccccc1NC(=O)c1cc(-c2cccnc2)nc2ccc(Br)cc12	inactive
Cc1cc(C)c(NC(=O)CSc2nc3nc(C)cc(C)n3n2)c(C)c1	inactive
Cc1cc(C)c(NC(=O)CSc2ccc(-c3sc(-c4ccccc4)nc3C)nn2)c(C)c1	inactive
Cn1c(-c2ccc3c(c2)OCO3)cnc1NCc1ccc(Cl)cc1	inconclusive: 20 µM [inhibitor, partial curve]
N#C/C(=C\c1ccc([N+](=O)[O-])cc1)c1ccccn1	inconclusive: 7.08 µM [inhibitor, partial curve]
O=C(COC(=O)CCc1nc2ccccc2s1)Nc1cccc(S(=O)(=O)N2CCOCC2)c1	inactive
CCSc1nc(-c2ccccc2)c(C#N)c(=O)[nH]1	inactive
CCN(CC)c1cc(C)c2cc(NC(=O)c3ccccc3OC)ccc2n1	inconclusive: 12.6 µM [inhibitor, partial curve] and inconclusive: 8.91 µM [inhibitor, partial curve]
CCc1cc2c(nc1CC)CCN(CC/C(C)=N/OC[C@H]1O[C@H](c3ccccc3)C=C[C@@H]1Oc1ccc(OC)cc1)C2	inconclusive: 17.8 µM [inhibitor, partial curve, poor fit]
O=C1CC(Sc2ncn[nH]2)C(=O)N1c1ccccc1 (stereo unspecified)	inconclusive: 14.1 µM [inhibitor, partial curve, poor fit]
O=c1[nH]c2ccccc2nc1/C=C/c1ccc(Cl)cc1	inconclusive: 0.178 µM [inhibitor, full curve, poor fit]
Cc1ccc(NC(=O)/C=C/c2ccc(C)o2)c(C)c1	inactive
Cc1ccc(CN(Cc2ccco2)C(=O)COc2cc(C)c(Cl)c(C)c2)cc1	inactive
CC1=NN(c2ccc(C)cc2C)C(=O)C1C(c1cccc(O)c1)C1C(=O)N(c2ccc(C)cc2C)N=C1C (stereo unspecified)	inconclusive: 17.8 µM [inhibitor, partial curve]
CC1(C)CCCN(Cc2c(O)ccc3c(=O)c(-c4nc5ccccc5s4)c(N)oc23)C1	inconclusive: 7.94 µM [inhibitor, partial curve]
